Reference: a collection of fitness landscapes (doi:10.1016/j.celrep.2020.107928)
The full ranking holds about 81,000 sequences; the median of “one-hybrid fitness for binding parS DNA” is about -0.17, and the highest 2% start at about 0.51. Some of the results follow.

B1: Caulobacter ParB omega fusion; a variant is named by its letters at X, in order, B8GW30 (parent)
chain: MESVVVGEPGMSEGRRGLGRGLSALLGEVDAAPAQAPGEQLGGSREAPIEILQRNPDQPRRTFREEDLEDLSNSIREKGVLQPILVRPSPDTAGEYQIVAGERAWRAAQRAGLKTVPIMVRELDDLAVLEIGIIENVQRADLNVLEEALSYKVLMEKFERTQENIAQTIGKSXSHVANXMRLLXLPDEVQSYLVSGELTAXHARAIAAAADPVALAKQIIEGGLSVRETEALARKAPNLSAGKSKGGRPPRVKDTDTQALESDLSSVLGLDVSIDHRGSTGTLTITYATLEQLDDLCNRLTRGI

Variants of: B1
Experiment: one-hybrid fitness for binding parS DNA (scaled: cognate 1, non-cognate 0); higher = stronger binding
Details: with parS DNA site
Summary of the method: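 Fitness here means the log change in variant-to-wild-type read ratio between plasmids sequenced before and after selection. That scale was set so cognate equals 1 and non-cognate equals 0. The selection was a bacterial one-hybrid screen of Caulobacter ParB libraries, four specificity codons randomised, in E. coli USO carrying a HIS3 reporter with the site 19 bp from the promoter, grown 48 hours at 37°C on M9-minus-histidine with 0.1 mM IPTG and 5 mM 3-AT.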

Variant | one-hybrid fitness for binding parS DNA
NQMR | ≤ 0.2
HFYR | ≤ 0.2
PRLE | ≤ 0.2
FSYV | ≤ 0.2
KWLT | ≤ 0.2
AKNT | ≤ 0.2
VGTL | ≤ 0.2
ITCD | ≤ 0.2
NCCS | ≤ 0.2
RMVV | ≤ 0.2
ELVG | ≤ 0.2
KLKQ | ≤ 0.2
SQGS | ≤ 0.2
WVVG | ≤ 0.2
GTAE | ≤ 0.2
INKS | ≤ 0.2
SRAN | ≤ 0.2
AKFS | ≤ 0.2
LFDP | ≤ 0.2
RFRG | 0.992
NTNC | ≤ 0.2
QHAP | ≤ 0.2
QTWQ | ≤ 0.2
STKP | ≤ 0.2
KNMR | ≤ 0.2
FRGV | ≤ 0.2

Variant | one-hybrid fitness for binding parS DNA
RHLM | 0.324
LTES | ≤ 0.2
AECT | ≤ 0.2
NGWW | ≤ 0.2
SGNV | ≤ 0.2
ACGT | ≤ 0.2
ALVG | ≤ 0.2
PDNR | ≤ 0.2
YATR | ≤ 0.2
PSSD | ≤ 0.2
PWGP | ≤ 0.2
RCQV | ≤ 0.2
KAQV | ≤ 0.2
TPHN | ≤ 0.2
AVIC | ≤ 0.2
TQES | ≤ 0.2
QETT | ≤ 0.2
CHRA | ≤ 0.2
SQMR | ≤ 0.2
PKQM | ≤ 0.2
QTQN | ≤ 0.2
LTPM | ≤ 0.2
RAII | ≤ 0.2
LSFN | ≤ 0.2
VNKT | ≤ 0.2
AMFS | ≤ 0.2

Variant | one-hybrid fitness for binding parS DNA
GEND | ≤ 0.2
HHDA | ≤ 0.2
RVLA | 0.565
DVAF | ≤ 0.2
LQEQ | ≤ 0.2
KRFT | ≤ 0.2
CARV | ≤ 0.2
ICSG | ≤ 0.2
HQMY | ≤ 0.2
QDVV | ≤ 0.2
PPDG | ≤ 0.2
YTHG | ≤ 0.2
TTQI | ≤ 0.2
YAHR | ≤ 0.2
GKMV | ≤ 0.2
QNGR | ≤ 0.2
CILS | ≤ 0.2
GWPT | ≤ 0.2
KPNH | ≤ 0.2
RILL | ≤ 0.2
IRKM | ≤ 0.2
GALS | ≤ 0.2
RNKY | 0.543
AWTS | ≤ 0.2
TYEC | ≤ 0.2
HYHD | ≤ 0.2

Variant | one-hybrid fitness for binding parS DNA
LAGA | ≤ 0.2
ERLS | ≤ 0.2
NPMC | ≤ 0.2
MPMR | ≤ 0.2
VRGF | ≤ 0.2
AIKL | ≤ 0.2
FPNF | ≤ 0.2
HFSV | ≤ 0.2
CVTN | ≤ 0.2
RTVV | ≤ 0.2
HSSY | ≤ 0.2
NFCN | ≤ 0.2
RRNH | 0.256
HIPS | ≤ 0.2
NLNK | ≤ 0.2
FVRC | ≤ 0.2
NCNS | ≤ 0.2
HYHY | ≤ 0.2
PWRD | ≤ 0.2
PRSW | ≤ 0.2
IKYM | ≤ 0.2
VVQG | ≤ 0.2
LDGF | ≤ 0.2
DACS | ≤ 0.2
KDMV | ≤ 0.2
APQG | ≤ 0.2

Variant | one-hybrid fitness for binding parS DNA
SYTR | ≤ 0.2
FLKT | ≤ 0.2
TRAG | ≤ 0.2
GETA | ≤ 0.2
PVTL | ≤ 0.2
CIYT | ≤ 0.2
ITLT | ≤ 0.2
ALAC | ≤ 0.2
SKNS | ≤ 0.2
YVVS | ≤ 0.2
DRPI | ≤ 0.2
TSSE | ≤ 0.2
AAPT | ≤ 0.2
KFVS | ≤ 0.2
ITNL | ≤ 0.2
GTMT | ≤ 0.2
SFAY | ≤ 0.2
QLNC | ≤ 0.2
YTKD | ≤ 0.2
AFFK | ≤ 0.2
AQPV | ≤ 0.2
RKRQ | ≤ 0.2
RSMI | ≤ 0.2
LTIF | ≤ 0.2
MRSV | ≤ 0.2
QAEW | ≤ 0.2

Variant | one-hybrid fitness for binding parS DNA
TQVQ | ≤ 0.2
VVAV | ≤ 0.2
TCKR | ≤ 0.2
PWQC | ≤ 0.2
KLAR | ≤ 0.2
KAYA | ≤ 0.2
GANY | ≤ 0.2
GHNS | ≤ 0.2
KSGN | ≤ 0.2
YYGT | ≤ 0.2
TGCC | ≤ 0.2
VEFT | ≤ 0.2
ESFI | ≤ 0.2
CNLV | ≤ 0.2
IYPC | ≤ 0.2
TIKT | ≤ 0.2
LRNM | ≤ 0.2
HSTL | ≤ 0.2
TGTL | ≤ 0.2
QCRQ | ≤ 0.2
IRND | ≤ 0.2
KAGA | ≤ 0.2
MVET | ≤ 0.2
